Laboratory results: PubChem BioAssay AID1508624 (National Center for Advancing Translational Sciences (NCATS), 2021)
About 120 (0.25%) of roughly 48,000 compounds were called active. About 4% were inconclusive and are not listed. The call rests on the fitted dose curve; in most records, active means well fitted activation curve with a large enough effect; inconclusive means small, poorly fitted or top-dose-only effect, or another doubt; inactive means no such curve, though single readings can be large or run the other way. The list shows a part of the results.

Experiment: Primary qHTS for Identification of Small Molecule Activators of Huntingtin-Antisense Promoter Activity; further: nearly all actives have a fitted effect of over 55% in size
Settings: HEK293 HTT-AS promoter firefly luciferase reporter, 24 h; series mostly up to 57.5 µM; activity change, positive = activation: at the top concentration
In short: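 HEK293 Fluc reporter, 2,500 cells/well, 24 h pre-culture; cpds up to 57.5 uM final, 24 h 37 degrees C; Dual-Glo, 10 min RT; normalized vehicle = 0%, zero RLU = -100%.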

Activity change, positive = activation, inactive:
CCOC(=O)c1ccc(NC(=O)C2=C(C)Nc3nc(CCCO)nn3C2c2ccc(OC)cc2)cc1 (stereo not given) -15.9%
Cc1cccc(N2CCN(C(=O)c3ccc(Nc4nc5ccccc5n5nnnc45)cc3)CC2)c1C 17.2%
CC1=C(C(=O)Nc2cc(Cl)ccc2C)C(c2cccs2)n2ncnc2N1 (stereo not given) -2.49%
CCN1CCN(C(=O)N[C@H](C(=O)N[C@@H]2C(=O)N3C(C(=O)O)=C(CSc4nnnn4C)CS[C@@H]23)c2ccc(O)cc2)C(=O)C1=O 2.36% [at 19.1 µM, percent change from vehicle, -100% = no light]
COc1ccc2c(CNCCc3cccs3)c(C(=O)O)n(Cc3ccc(F)cc3Cl)c2c1 -56.4%
CCC(Sc1nnc2c3ccccc3n(CC)c2n1)C(=O)Nc1nnc(C(C)C)s1 (stereo not given) -13.4%
COc1ccc(-c2cc3nc(C4CCN(C(=O)OC(C)(C)C)CC4)c(C(=O)Nc4cc(C)cc(C)c4)cn3n2)cc1 13%
Cn1c(=O)cc(SCC(=O)N2CCN(c3ccccc3F)CC2)c2ccccc21 -19.4%
CCCN1CCN(CCCNC(=O)c2ccc3nc(Cc4ccccc4)oc3c2)CC1 -7.19%
CCOc1ccc(CN(CCc2ccc3c(c2)OCO3)Cc2cc(OC)c(OC)cc2OC)cc1 -22.7%
COc1ccc(C)cc1NC(=O)c1cc(S(=O)(=O)N2CCCCC2)c[nH]1 -20.9%
Cc1cc(C)cc(NC(=O)CCCc2nc(-c3ccco3)no2)c1 -21.8%
Cc1cc(-n2c(C)nc3ccccc3c2=O)ccc1NC(=O)c1ccccc1[N+](=O)[O-] -4.06%
O=C(NCc1ccccc1F)c1ccc(CSc2nc3cccnc3n2Cc2ccccc2)cc1 -21.5%
Cc1nn2c(=O)cc(COC(=O)c3ccccc3NC(=O)COc3ccccc3C)nc2s1 -6.36%
Cc1ccc(SCc2nc(-c3ccc(C(=O)NCCc4ccc(Cl)cc4)cc3)oc2C)cc1 3.67%
CCN(CC)CCOc1ccc(Cc2ccccc2)cc1
COc1ccc(OC)c(NC(=O)[C@H](CSCc2ccccc2)N2Cc3ccccc3C2=O)c1 -25.5%
CCOC(=O)c1cc(OC(=O)c2ccccc2Cl)n(-c2ccccc2)n1 -24.3%
COC(=O)c1cc2sc(Cl)cc2n1CC(=O)Nc1cc(C)cc(C)c1 12.8%
Cc1ccc(CNC(=O)Cn2c(=O)n(-c3ccc(C)cc3)c(=O)c3c2c2cc(C)ccc2n3C)cc1 -0.207%
COC(=O)c1cc2occc2n1CC(=O)Nc1ccc(N(C)C)cc1 21%
COC(=O)c1c(N)n(-c2ccc(OC)c(OC)c2)c2nc3ccccc3nc12 -6.18%
N#Cc1nc(-c2ccc(COc3ccccc3)o2)oc1N1CCCCC1 -18.9%
Cc1ccc(CNC(=O)C(=O)NCC(c2ccco2)S(=O)(=O)c2ccccc2)cc1 (stereo not given) 15.5%
Cc1ccccc1NC(=O)Cn1c(=O)n(Cc2ccccc2)c(=O)c2c(C)c(C)sc21 12.2%
CCc1ccc(NC(=O)C2CCN(c3ccc(Sc4ccc(C)cc4)nn3)CC2)cc1 -3.72%
COc1ccc(CCNC(=O)Cn2c(=O)cc(C(F)(F)F)c3c(C)nn(C)c32)c(OC)c1 -7.62%
CCOc1cc(CNC(=O)c2cc(-c3ccc(Cl)s3)nc3ccccc23)ccc1OC -5.37%
Cc1ccc(N2CCN(S(=O)(=O)c3nnc(NC(=O)c4cccc(F)c4)s3)CC2)cc1 -18.3%
CCCCCCCCCCCCCCCCCCN(C)C -11.4%
O=C(Cn1cccc1C(=O)c1ccccc1)NCc1ccc(Cl)cc1 9.97%
COc1ccc(NC(=O)CNC(=O)Cn2ccc3ccccc3c2=O)c(OC)c1 -17.4%
CCCN1CCN(CCCNC(=O)c2cc3c(=O)[nH]c4ccccc4c3s2)CC1 -14.6%
O=C(CCSCCc1ccccn1)Nc1ccccc1C(F)(F)F -12.7%
CCc1ccccc1NC(=O)Cn1cc(C(=O)c2ccncc2)c(=O)c2cc(C)ccc21 10.9%
COc1ccc(CCNC(=O)c2cc(-c3ccc(C)cc3)nc3n[nH]c(-c4ccc(F)cc4)c23)cc1OC 0%
Cc1ccc(-n2ncc3c(NCCc4ccccc4)ncnc32)cc1Cl 4%
O=C(COCc1cc(-c2ccc(F)cc2)on1)Nc1cc(Cl)cc(Cl)c1 -17.2%
Cc1ccc(N2CC(C(=O)NCCS(=O)(=O)N3CCN(c4ccc(F)cc4)CC3)CC2=O)cc1 (stereo not given) -6.12%
O=C(CCSCc1cccc(F)c1)NCCc1ccccc1 -10.4%
COCCCNc1oc(-c2ccc(COc3ccccc3C)o2)nc1C#N -21%
COc1cc(OC)c(NC(=O)Cn2c(=O)nc(-c3ccccc3)c3ccccc32)cc1Cl -24.4%
CC1=C(C(=O)Nc2cccc(F)c2)C2(CCCCCC2)OC1=O -28.4%
COc1cccc(Cn2c(=O)n(-c3cc(C)cc(C)c3)c(=O)c3oc4ccccc4c32)c1 -28.3%
Cc1ccc2c(=O)c(C(=O)c3cccc(Cl)c3)cn(CC(=O)NCc3ccccc3)c2n1 -13.6%
CCC(CC)C(=O)Nc1cccc(-c2cn3cccnc3n2)c1 4.97%
Cc1c(Cl)cccc1-c1ccc(C(=O)Nc2ccc3oc(-c4cccnc4)nc3c2)o1 -17.8%
CCC1=Nc2cc(C(=O)NC3CCCC3)ccc2Sc2ccc(Cl)cc21 -46%
COc1cc(CNCCSc2nnnn2C)ccc1OCc1ccccc1 -0.863%
C[C@@H]1[C@H](C)CC[C@]2(C(=O)O)CC[C@]3(C)C(=CC[C@@H]4[C@@]5(C)C[C@@H](O)[C@H](O)[C@@](C)(CO)[C@H]5CC[C@]43C)[C@@H]12 -10.3%
Cc1ccc2nc3sc(C(=O)Nc4ccc(F)cc4)cc3cc2c1 18.4%
CCOC(=O)c1cc(S(=O)(=O)N2CCN(c3cccc(C)c3)C(C)C2)[nH]n1 (stereo not given) -15.4%
COc1ccc(N2CCN(C(=O)c3c(C)oc4ncn(CC(C)C)c(=O)c34)CC2)cc1 3.12%
COC(=O)c1ccc(NC(=O)C(C)N2Cc3ccccc3C2=O)cc1 (stereo not given) -4.5%
Cc1ccc(CNC(=O)c2cnc(N3CCCC3)nc2C)cc1 -7.56%
CC(C)C[C@@H](C=O)NC(=O)[C@H](CC(C)C)NC(=O)[C@H](CC(C)C)NC(=O)OCc1ccccc1 -75.4%
CN(C(=O)CSc1nc2ccc(NC(=O)c3ccco3)cc2s1)c1ccccc1 -32.8%
CCc1ccccc1NC(=O)c1nnn(CC(=O)Nc2c(C)cc(C)cc2C)c1N -9.2%
Cc1cc(C)c2c(NC(=O)c3ccccc3Cl)c(C(=O)Nc3ccc(C)c(C)c3)sc2n1 17.1%
CCOc1ccc(CCNc2ncnc3onc(C)c23)cc1OCC -53%
COc1ccc(CCNC(=O)CCCCn2c(=O)c3ccccc3n(Cc3cccc(C)c3)c2=O)cc1OC -39.5%
CCOC(=O)c1cnc2c(OC)cccc2c1N1CCN(c2ccccc2F)CC1 -43.3%
COc1ccc(C(=O)Nc2ccc3c(c2)CCCN3S(=O)(=O)c2ccc(C)cc2)cc1 21%
CCCCN(CCCC)CCn1cnc2c([nH]c3ccc(OC)cc32)c1=O -26.5%
COc1ccc(NC(=O)c2oc3ccccc3c2NC(=O)c2cc(=O)c3ccccc3o2)cc1 20.9%
COc1ccc(CNC(=O)c2ccc(-c3nc(CSc4ccccc4)c(C)o3)cc2)cc1 -21.2%
N[C@H]1C(O)O[C@H](CO)[C@@H](O)[C@@H]1O (stereo not given in full) -0.548%
CCn1cc(C(=O)N2CCN(c3ccccc3OC)CC2)c2cc(OC)c(OC)cc2c1=O -11.9%
CCC(Oc1ccccc1)C(=O)Nc1nnc(S(=O)(=O)N2CCCC2)s1 (stereo not given) -8.2%
CCc1ccc(OCC(=O)Nc2c(C(=O)c3ccc(Br)cc3)oc3ccccc23)cc1 -8.69%
OC[C@H]1O[C@@H](n2cnc3c2NC=NC[C@@H]3O)C[C@H]1O -21.1%
CCOc1cccc2sc(=NC(=O)c3ccc(S(=O)(=O)N4CCOCC4)cc3)n(C)c12 -20.8%
COc1cccc2c1Oc1ncccc1N(C(=O)CCC(=O)NCc1ccc(OC(C)C)cc1)C2 -8.56%
Cc1nn(CC(=O)NC(C)c2ccccc2)c(=O)c2cc3occc3n12 (stereo not given) -10%
O=C(CSc1nc2c([nH]c3ccccc32)c(=O)n1-c1ccccc1)Nc1ccccc1C(F)(F)F -24.1%
NC(=O)COc1ccc(-c2noc(COc3ccc(Cl)cc3)n2)cc1 6.41%
CCOC(=O)C1=C(CN2CCN(c3ccc(Cl)cc3)CC2)NC(=O)NC1c1ccc(F)cc1 (stereo not given) -42.5%
COc1ccc2c(c1)CC(C(=O)Nc1c(C)cc(C)cc1C)CO2 (stereo not given) -10.4%
NS(=O)(=O)c1ccc(CCNC(=O)Cn2c(=O)c3cccn3c3ccc(F)cc32)cc1 -6.69%
COc1cccc(C(=O)NCC(c2ccc3c(c2)OCO3)N2CCN(C)CC2)c1 (stereo not given) -9.24%
Cc1[nH]c2ccccc2c1C1(O)C(=O)Nc2ccc(Cl)cc21 (stereo not given) -14.1%
COc1cc(CNCCCSc2nnnn2C)cc(Br)c1OC -6.44%
O=C(Nc1cccc(F)c1)C1CCN(c2nc3ccccc3nc2C(F)(F)F)CC1 -5.56%
Cc1ccc(-n2c3c(c(=O)[nH]c2=O)C(NC(=O)C(C)(C)C)(C(F)(F)F)C(=O)N3)cc1 (stereo not given) -9.47%
CCc1ccccc1-n1nnc(-c2nc(-c3ccccc3F)no2)c1C -27.6%
COc1ccc(OC)c(NC(=O)CCCOc2cc(=O)n(C)c3ccccc23)c1 -14.7%
COc1cccc(NC(=O)CSC2=Nc3ccccc3C3=NC(CCC(=O)NC4CCCCC4)C(=O)N23)c1 (stereo not given) -9.33%
CCc1ccc(-c2nc(CN3CCCC(C(=O)NCc4ccccc4Cl)C3)c(C)o2)cc1 (stereo not given) -53.6%
Cc1ccc2c(c1)-c1nc(-c3ccccc3)cc(-c3ccccc3)c1CO2 0.816%
C=C1C[C@H]2[C@@H]3C=C(C)C4=CC(=O)CC[C@]4(C)[C@H]3CC[C@]2(C)[C@@]1(OC(C)=O)C(C)=O -25%
Cc1nn2c(=O)cc(COC(=O)c3ccccc3NC(=O)C3CCCCC3)nc2s1 -5.86%
O=C(NCCc1csc(-c2cccc(F)c2)n1)c1ccco1 -0.574%
CCOc1ccc(N(CC)S(=O)(=O)N2CCCC(C(=O)NCc3ccccc3OCC)C2)cc1 (stereo not given) -27.5%
COc1cc(-c2cc3n(C)c(C)c(CCC(=O)NC4CCC(C)CC4)c(=O)n3n2)cc(OC)c1OC (stereo not given) 1.76%
